Results on 19 compounds are retold here after the antibiotic and cytotoxicity screens of Wong et al. (2023).

The list shows a part of the results.

The experiment deals with S. aureus RN4220. Briefly: growth inhibition call (relative growth <= 0.2). The note with it: 50 µM.
On to `COc1ccc(S(=O)(=O)Nc2ccc3c(c2)CC(=O)N([C@@H](C)CO)C[C@@H](C)[C@H](CN(C)S(=O)(=O)c2ccc(C)cc2)O3)cc1`, for which the growth inhibition call was “inactive”.
As for `O=C(NCc1ccccc1)c1cn[nH]n1`, the entry is “inactive”; as for `CCNC(=O)C[C@H]1CC[C@@H]2[C@@H](COc3ccc(NS(=O)(=O)c4ccccc4C)cc3C(=O)N2C)O1`, “inactive”; as for `Cc1ccc(S[C@]2(C(=O)NC(C)C)CC(=O)N(Cc3ccccc3C(F)(F)F)[C@@H]2c2ccc(CO)cc2)cc1`, “inactive”.
`NCc1ccccc1`: the growth inhibition call is “inactive”.
Then `C[C@@H]1CCCCO[C@@H](CN(C)C(=O)Nc2ccc(F)cc2)[C@H](C)CN([C@H](C)CO)C(=O)c2cc(NS(=O)(=O)c3cccs3)ccc2O1`, with “inactive”.
Then `CNc1nc(OC)cc(OC)n1`, with “inactive”.
On to `CNC(=O)C[C@H]1CC[C@H]2[C@@H](COC[C@H](O)CN2C(=O)Nc2ccc3c(c2)OCO3)O1`, for which the growth inhibition call is “inactive”.
Regarding `C[C@@H]1CN([C@H](C)CO)C(=O)c2cc(NC(=O)NC3CCCCC3)ccc2O[C@@H](C)CCCCO[C@H]1CN(C)C(=O)C1CCCCC1`, the growth inhibition call was “inactive”.
Then `Cc1noc(C)c1NC(=O)Nc1ccc2c(c1)CC(=O)N([C@H](C)CO)C[C@@H](C)[C@H](CN(C)S(=O)(=O)c1ccccc1)O2`, with “inactive”; and `Cc1noc(C)c1S(=O)(=O)Nc1ccc2c(c1)C(=O)N([C@@H](C)CO)C[C@@H](C)[C@@H](CN(C)S(=O)(=O)c1cn(C)cn1)OCCCC[C@H](C)O2`, with “inactive”.
For `COC(CNC(=O)C1CCN(S(=O)(=O)c2cccc3nsnc23)CC1)OC`, the growth inhibition call is “inactive”.
With `Cc1noc(C)c1S(=O)(=O)N(C)C[C@@H]1Oc2ccc(NS(=O)(=O)c3cccs3)cc2CC(=O)N([C@@H](C)CO)C[C@@H]1C`, the growth inhibition call was “inactive”.
As for `COc1ccc(S(=O)(=O)Nc2cccc3c2O[C@@H](CN(C)C(=O)NC(C)C)[C@@H](C)CN([C@@H](C)CO)C3=O)cc1`, the entry is “inactive”.
Then `Cc1ccc(S(=O)(=O)Nc2ccc3c(c2)CC(=O)N([C@H](C)CO)C[C@@H](C)[C@H](CN(C)Cc2ccc(Cl)c(Cl)c2)O3)cc1`, with “inactive”; and `COc1ccc(NC(=O)N(C)C[C@@H]2OCCCC[C@@H](C)Oc3ccc(NS(=O)(=O)c4ccc(Cl)cc4)cc3C(=O)N([C@@H](C)CO)C[C@@H]2C)cc1`, with “inactive”.
On to `C[C@@H]1CCCCO[C@@H](CN(C)Cc2ccccc2)[C@H](C)CN([C@@H](C)CO)C(=O)c2cc(NC(=O)CCC(F)(F)F)ccc2O1`, for which the growth inhibition call is “inactive”.
As for `COc1ccc(S(=O)(=O)Nc2ccc3c(c2)C(=O)N([C@@H](C)CO)C[C@H](C)[C@H](CN(C)C(=O)Nc2c(C)noc2C)O3)cc1`, the entry is “inactive”.
As to `Cl.NCCCC(N)(C(=O)O)C(F)F.O` (centres undefined), the growth inhibition call is “inactive”.
